We go through six molecules from paper PMC12136788.

The labels stand for the following.
T1: UNK ZnF1-3 (human, UniProt Q9C0B0 31-174)
T1 sequence: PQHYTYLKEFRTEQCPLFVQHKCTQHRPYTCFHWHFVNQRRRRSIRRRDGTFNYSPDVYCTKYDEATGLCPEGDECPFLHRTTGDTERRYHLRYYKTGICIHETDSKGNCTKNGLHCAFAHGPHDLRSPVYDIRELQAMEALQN

B1: chr7:106416527:106416528:+_ENSMUSG00000055407_ENSMUST00000127492|mus_mus|motif|central (ssRNA)
RNA: GGGAGUUCUACAGUCCGACGAUCGCAGGCCCUUGUGAUGCACGGCCACGCCAUGUUAGCCACAAAGCCUUUUUGUGGUCCGGAAUCAAAUCUCCAAUCUCCCUUUAACCCCAACCCAGACCCGCCAAUGUGGUUCCCACCGCUCAACAGAGGAUUGAGCAUCA
B2: chr2:160604994:160604995:+_ENSG00000136536_ENST00000409591|hu_hu|FALSE|FALSE (ssRNA)
RNA: GGGAGUUCUACAGUCCGACGAUCCCUUGAAGAUUCAUCUCUUCCCUCUCGCCUCCUUCUAGAGAACAAAGGUGUGCAUCUAUUUCUAAGUGAGGAAGAUAACCAUGGUCCUGUAUUUCUACCUUCAGAUUCUUGGUUAAAAUUCAACAGAGGAUUGAGCAUCA
B3: chr4:99962207:99962208:+_ENSG00000164024_ENST00000296411|hu_mus|motif|central (ssRNA)
RNA: GGGAGUUCUACAGUCCGACGAUCCCCAGCAGCAAUGUCCAAAACUUCUCUGGCAAGCCUACACACGAGUCGCAUCCCUUCGGUAUCUUCAGAUGAGAGUAACUUAAUCUGAGAGGUACCUUUAAGAGCCUGCUCCGAUUCAGACAACAGAGGAUUGAGCAUCA
B4: chr4:140556289:140556290:+_ENSMUSG00000036622_ENSMUST00000037055|mus_mus|mus_mus_mus_hu_False|1_1 (ssRNA)
RNA: GGGAGUUCUACAGUCCGACGAUCGAUGGAGCUCACCAGGCCCCCUUUUGCCGUGCAGAACCCUGUGCGGGUCACCACUGCCAGGACGUGCGGUCCCACAUAGGCCCGGGCCUGCAAGAUGAGGGUCCCGCAGAAGAGGGUGUGCAACAGAGGAUUGAGCAUCA
B5: chrX:40531158:40531159:-_ENSG00000180182_ENST00000324817|hu_mus|FALSE|FALSE (ssRNA)
RNA: GGGAGUUCUACAGUCCGACGAUCAUGCAGAUUUCCUGGAGACUGUGUGUGCAUCAUAGAGGGGGACUGAUUAACUGUGCUGUGAUAGGAUGUAGGGGGUGAAGUAAGAGGGUAAGCGCCUGAUGUCCCUGGCUGCUUUGGAAACAACAGAGGAUUGAGCAUCA
B6: chr16:3748964:3748965:+_ENSMUSG00000022529_ENSMUST00000023176|mus_hu|FALSE|FALSE (ssRNA)
RNA: GGGAGUUCUACAGUCCGACGAUCUUCAGUGCAGUCCACACCCAUACACAGUCUUUCAGCUGCAUGUAUUCUCUGGUGCCUAAUUAGGUUUGAGUUGUUAGAGAAAUUUUUGCCACACAAGGGACAUAAAUGGAGUUUCUUUGGCAACAGAGGAUUGAGCAUCA

This is one part of the list.

The target in the test is T1, UNK ZnF1-3. In words: nsRBNS (natural sequence RNA bind-n-seq); RBNS binding buffer (assumed for nsRBNS): 25 mM Tris pH 7.5, 150 mM KCl, 3 mM MgCl2, 0.01% Triton X-100, 500 ug/ml BSA, 20 U/ml SUPERase-In, 4 C; UNK is unkempt and MSI1 is Musashi-1; names of the RNAs are library labels; protein concentration not given here; high values mean tight binding.
B1: the binding signal was determined as 0.927 enrichment R.
B2 gave a binding signal of 1.23 enrichment R.
The molecule B3 returned a binding signal of 0.979 enrichment R.
B4 yielded a binding signal of 0.506 enrichment R.
Take B5: the binding signal came to 1.48 enrichment R.
Regarding B6, the binding signal stood at 0.781 enrichment R.
